Over roughly 33,000 sequences, “E-score (-0.5 to 0.5)” has its median near -0.01; the highest 2% begin near 0.26. Some of the results follow.
What follows are sequences tested against Ste12 (UniProt P13574) (assay: PBM E-score (8-mer binding enrichment) (E-score (-0.5 to 0.5)); higher = stronger / more preferred TF binding; most listed sequences are background and not binding sites). Settings: protein concentration: 200 nM; construct: GST-DNA-binding domain.
How it was run: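 The E-score, a modified Wilcoxon-Mann-Whitney statistic, was computed by the Universal PBM Analysis Suite for every ungapped eight-base word pooled with its reverse complement. Scans behind it were normalised with masliner after bound GST-tagged yeast transcription factors were detected with fluorescent anti-GST. The proteins, at about 100-200 nM, had been applied to universal all-10-mer Agilent arrays made double-stranded by primer extension.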

Sequence | PBM E-score
GAGGCGCC | -0.0886
CGAGTACG | -0.163
CAACTACG | -0.0186
TAGGAAGA | -0.204
AGTGTTGG | -0.0688
CACCCCAC | 0.225
AACAGCGT | 0.0391
CGTGACGC | 0.0399
CAAACCCC | -0.0764
AATCAGCT | 0.0669
ACAAAGAA | 0.215
GAATAAGC | -0.0403
GATCGGAA | 0.0696
ATTAACTG | 0.187
GATAATGC | -0.0128
GTCTCCTA | -0.229
CTGAGGCC | -0.243
TGCTAGAA | -0.0323
CAGACACA | 0.139
AGTTGCTA | 0.0735
CTAGGGTC | -0.253
CACGGGCG | 0.00735
AGCCTTGA | -0.174
AGGCACAG | -0.206
ATCGGTAA | 0.16

Sequence | PBM E-score
TCACTCGA | -0.213
CGAATAAA | 0.182
CGAGGCAA | 0.159
ATCGCTAA | -0.0505
GCACACGA | -0.088
CGAGGGCA | 0.0137
AACTCGCC | -0.0534
ACTAGACC | 0.0423
ATCGGTGC | -0.0807
AATCATTC | 0.0594
ACACAACG | 0.128
ATACAAAG | 0.0824
ACTTACCG | 0.105
CACCTGTA | -0.0729
GGAGGCAC | -0.16
AAGCCGTA | 0.0446
AAGGCAGT | -0.0357
AAGGCATA | -0.0705
GTGGGTCA | -0.0954
ACGTACGG | -0.111
ACGCATGG | -0.0495
GATATCGC | 0.0363
CTGCTAAG | -0.129
GAATAGAA | 0.135
AGACCGAA | 0.0491

Sequence | PBM E-score
ACTCGATG | -0.159
CAGGCCTG | -0.0619
CGCAGGGA | -0.136
AAAACCCA | 0.146
GCTCGCAA | 0.0496
ACTGGGTG | -0.107
ACTCTTTC | -0.0871
ATCTAGAA | 0.0817
CCTTCTGA | -0.0508
CCTCAGGA | -0.0519
ATGATAAA | 0.209
ATATACGG | -0.0537
CCCCAAAA | 0.0924
CATCTAGG | 0.0212
CTTCGTAA | -0.00738
CCTAATAA | 0.13
GGATACGA | -0.235
ATAAGCCC | -0.0186
AACTGGGA | -0.13
GCTACCCA | -0.191
AAAAAGGG | 0.218
AGGGAAAA | 0.209
AGAGGGTC | -0.115
GACAGAGC | 0.0393
CAACACAC | 0.0252

Sequence | PBM E-score
AAGTCGTC | -0.00218
CTGCATTC | 0.0326
TAGATCTA | 0.0651
ATATCAAA | 0.3
AGCCGTTC | -0.11
CGCAAGCG | -0.225
GGTCGGAC | 0.0322
TACCCCTA | 0.0164
AGTGTAGA | 0.0573
CCACACCG | 0.0791
CCTGCGAC | -0.0666
CAGCAGCG | -0.0218
AGCCTCTC | -0.234
AGCCAGGG | -0.278
ACTGGATG | -0.169
AATGCAGT | -1e-05
CCATGTGC | -0.0407
GACCCCAA | -0.144
AGGTCGGG | -0.125
GACGCTCA | -0.0918
GCAGAAGC | -0.185
ACAGTTAT | 0.105
AGCTAGCA | -0.272
AGATGTTG | -0.0675
ATGAGGGA | -0.015

Sequence | PBM E-score
AGTTTAAA | 0.259
GAATGTGC | 0.06
ATCATGAA | 0.0529
ACTGGACC | -0.219
GGCCCAAA | 0.0386
CAGCGCAA | -0.0584
AAGACATG | -0.137
CTTGGGGC | 0.0678
CGGGCCAG | -0.0756
CAGTCCAG | -0.271
AGATAAAC | 0.169
CGTAAGCA | -0.0602
ACGGGCGC | 0.0135
CAGCCTAC | 0.0667
CCTCGCCG | -0.286
CGCGGGCA | 0.134
CTCTACGC | -0.0707
AAGCGTAT | -0.0659
AATTAACT | 0.0529
AAGCGCTA | 0.0374
ACGCGTAC | -0.107
GATACGCC | 0.153
AGCACGTA | -0.0572
GCCCCTAA | 0.0808
CAGTGTGG | -0.192

Sequence | PBM E-score
CAAACTGC | 0.214
AAAACAAG | 0.104
CGTGCGAG | 0.0943
CGCATTAG | -0.136
CTTACGAC | -0.0711
AAAGTCAG | 0.0447
ATAGGTTG | -0.0417
ACCACGCT | -0.172
GAGAGTAA | 0.142
GCCCGAGC | 0.0127
ATCGTTAC | 0.0488
ACAATGTA | 0.0356
TCACATAA | 0.176
ACGAGGTG | 7e-05
AGTCACTA | -0.073
ATAAAATC | 0.174
CAAGTATC | -0.106
ACATCGCA | -0.0738
GCTTCGTA | -0.0973
CATCAGGC | -0.111
GCCCGTTA | -0.163
CCCCCATA | -0.234
ATATGCTG | -0.00346
CAAGATGC | 0.0625
GCAATACA | 0.195

Sequence | PBM E-score
GCACAGGA | -0.222
GTCAAAGA | -0.00052
AATCCGCT | -0.113
AAATCACC | 0.157
AACTTGAA | 0.197
CTTTCTGA | 0.175
CCTACCAA | -0.00838
AGGGTGCA | -0.218
CGGCGTGA | -0.0692
CGTCGGCA | 0.0307
CGTCGCAA | 0.206
CCCTGCGA | -0.0669
ATCATAAT | 0.151
CGGCGTTA | 0.137
CAGCTCAA | 0.125
ATTTGGCC | -0.126
AACGCCTT | 0.0337
AAGTATTC | -0.0278
AGAGTGCT | -0.0029
CTCGGTTC | -0.151
CATTCCGC | 0.0376
ATAGACAG | -0.143

Reference: the supplement of paper PMC3334620
